{"source": "PubChem BioAssay AID445", "about": "(National Center for Advancing Translational Sciences (NCATS), 2006)", "note": "The campaign covered roughly 110,000 compounds. About 40 (0.04%) were called active. Inconclusive means that the source gave no clear call. Such entries were picked first, then a sample of the others. Calls come from the whole dose curve; as a rule, active = well fitted curve in the direction sought with a large enough effect in the signal ratio (not every such curve was filed as active); inconclusive = small, poorly fitted or top-dose-only effect, or a change in a side signal; inactive = flat fitted curve, though single readings scatter; the % refers to the signal ratio. Where the call is inconclusive, the potency comes from a doubtful curve fit. Potency is the fitted concentration of half-maximal effect.", "data": [{"assay": "IkB Signaling;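 for IkBa stabilization activation: 0% = basal untreated cells and 100% = reference inhibitor full response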", "conditions": "ABC-DLBCL IkBa-CBG/CBR dual luciferase ratio (green luciferase fused to IkBa over red control in OCI-Ly3 lymphoma cells), 4 h; IkBa stabilization activation: at 57.1 µM (top of the series), scaled: untreated 0%, proteasome inhibitor 100% unless noted", "how_it_was_run": "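Curves were fitted separately to fusion (green), unfused (red) and ratio luminescence, then classed by r2, magnitude and activity. Cells: OCI-Ly3, 4 h compound plus doxycycline at 37C; 10 uM MG-132 defined full response.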", "values": [{"smiles": "CCOc1ccc(NC(=O)c2c(NC(=O)Cc3ccccc3)sc3c2CCCC3)cc1", "IkBa stabilization activation": "inactive"}, {"smiles": "COc1ccc(Cl)cc1NC(=O)Cn1c(=O)n(Cc2ccco2)c(=O)c2ccc(C(=O)NC3CCCC3)cc21", "IkBa stabilization activation": "inactive"}, {"smiles": "O=C(O)CCCC(=O)Nc1nc(-c2ccccc2)cs1", "Potency": "inconclusive: 5.01 µM [signal inhibitor, partial curve]"}, {"smiles": "COc1ccc(-c2noc(CSc3nnc(Cc4ccccc4)n3-c3cccc(C)c3)n2)cc1OC", "IkBa stabilization activation": "inconclusive: -1.12% [signal inhibitor]"}, {"smiles": "Cc1oc2ccc(O)c(CN(C)Cc3ccccc3)c2c1C(=O)Nc1cccc(Cl)c1C", "IkBa stabilization activation": "inconclusive: 3.23% [signal inhibitor]"}, {"smiles": "CCc1nc2nc(C)cc(Nc3ccc(Br)cc3F)n2n1", "IkBa stabilization activation": "inconclusive: 4.3% [signal inhibitor]"}, {"smiles": "CCOC(=O)N1CCN(c2ccc(C(=O)c3cccc(F)c3)cc2)CC1", "IkBa stabilization activation": "inconclusive: 5.33% [signal inhibitor]"}, {"smiles": "Cc1ccccc1NC(=O)c1c2c(nc3ccccc13)C(=O)N(C1CCCCC1)C2", "IkBa stabilization activation": "inconclusive: 7.43% [signal inhibitor]"}, {"smiles": "CCCCn1c(=N)n(CC(O)COc2ccccc2)c2ccccc21", "note": "(stereo not drawn)", "IkBa stabilization activation": "inactive"}, {"smiles": "COc1ccccc1-c1cc(C(F)(F)F)nc(S(=O)(=O)CCCC(=O)Nc2cc(C)ccc2O)n1", "Potency": "inconclusive: 3.16 µM [signal inhibitor, single point]"}, {"smiles": "Cc1ccc2c(=O)c(C(=O)c3ccc(F)cc3)cn(CC(=O)NC3CCCCC3)c2n1", "IkBa stabilization activation": "inconclusive: -0.0986% [signal inhibitor]"}, {"smiles": "COc1cccc(OCCSc2nc(C)c(Cc3ccccc3)c(=O)[nH]2)c1", "IkBa stabilization activation": "inconclusive: 1.4% [signal inhibitor]"}, {"smiles": "Cc1ccc(N(C)C(=O)C2CCN(S(=O)(=O)c3c(C)noc3/C=C/c3c(C)cc(C)cc3C)CC2)cc1", "IkBa stabilization activation": "inconclusive: 1.07% [signal inhibitor]"}, {"smiles": "COc1ccc(NC(=O)CCCN2C(=O)CCn3nc(-c4cn(C)c5ccccc45)cc32)cc1OC", "IkBa stabilization activation": "inconclusive: 0.234% [signal inhibitor]"}, {"smiles": "Cc1cccc(N2CCN(S(=O)(=O)c3ccc4[nH]c5c(c4c3)CCCCC5)CC2)c1C", "IkBa stabilization activation": "inconclusive: 2.6% [signal inhibitor]"}, {"smiles": "CCOC(=O)c1cccc(NC(=O)CC2C(=O)N(c3ccc(OC)cc3)C(=O)N2C2CCCC2)c1", "note": "(stereo not drawn)", "IkBa stabilization activation": "inactive"}, {"smiles": "O=C(c1cc(-c2ccco2)on1)N1CCN(C(c2ccccc2)c2ccccc2)CC1", "IkBa stabilization activation": "inconclusive: 5.76% [signal inhibitor]"}, {"smiles": "CCN(CC)C(=O)Cn1nnc2sc(-c3ccccc3)cc2c1=O", "IkBa stabilization activation": "inconclusive: 1.75% [signal inhibitor]"}]}]}
